This note sets out measurements from a collection of fitness landscapes (doi:10.1038/s41467-024-54723-y).

In all, about 18,000 sequences were measured (“TetR repression strength (sort-seq, GFP reporter)”: median about 0.23, highest 2% from about 0.68 on). Some of the results follow.

Sequence of UniProt P04483 (P04483 whole entry): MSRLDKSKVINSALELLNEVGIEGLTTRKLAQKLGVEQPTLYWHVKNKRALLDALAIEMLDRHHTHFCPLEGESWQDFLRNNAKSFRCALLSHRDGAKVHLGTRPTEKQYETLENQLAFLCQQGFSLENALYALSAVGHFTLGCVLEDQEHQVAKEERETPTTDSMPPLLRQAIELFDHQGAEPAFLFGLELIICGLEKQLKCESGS

The assay concerns the target TetR (class B, Tn10) (UniProt P04483). Description: TetR repression strength (sort-seq, GFP reporter) (relative to tetO2 = 1); higher = stronger repression. The conditions noted are these: E. coli. The method in brief:
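Repression strength is the top bin index plus one minus the read-weighted mean bin, relative to the unaltered operator's value. A low-copy library in E. coli SIG10-MAX randomized eight operator positions between a constitutive promoter and sfGFP, with TetR expressed constitutively; cells grew 5 h at 37 °C in LB with 50 µg/mL chloramphenicol and 10^6 were FACS-sorted into 13 bins that were each Illumina-sequenced. Three independent transformations were averaged, keeping only members with ≥30 reads in all replicates and CV ≤0.5.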
Sequence TCCCCGTGAGTTCGCGAGA registered a TetR repression strength of 0.215.
Next, TCCCAAGCAGTTTCAGAGA: 0.475; TCCCGTCGAGTCTCGGAGA: 0.313; TCCCTACAAGTCATAGAGA: 0.251.
The value for TCCCTGCTAGTGTGTGAGA was 0.31; that for TCCCTTACAGTGCAGGAGA was 0.113; that for TCCCAAGGAGTCCGGGAGA was 0.294.
Next, TCCCAGGCAGTGCACGAGA: 0.212; TCCCATGTAGTTCCCGAGA: 0.427; TCCCAGCCAGTATTGGAGA: 0.296.
With TCCCTGGGAGTCACGGAGA, the TetR repression strength stood at 0.216.
The value for TCCCCAGGAGTCATCGAGA was 0.397; that for TCCCGAGCAGTGGCAGAGA was 0.286; that for TCCCCAGCAGTTGGGGAGA was 0.304.
Regarding TCCCACAAAGTCGGTGAGA, the TetR repression strength stood at 0.267.
The value for TCCCGTTGAGTGTCGGAGA was 0.2.
The value for TCCCGCATAGTTGATGAGA was 0.311; that for TCCCTTACAGTTGCTGAGA was 0.244; that for TCCCCATGAGTTAGAGAGA was 0.196.
TCCCGGCCAGTTGTCGAGA returned a TetR repression strength of 0.231.
Next, TCCCATGTAGTCCGTGAGA: 0.163; TCCCTAAAAGTTAAAGAGA: 0.261.
Next, TCCCGCTTAGTCAGCGAGA: 0.188; TCCCAGTAAGTGAGAGAGA: 0.353.
Next, TCCCGCAAAGTCGCAGAGA: 0.0535; TCCCCCCAAGTCGGGGAGA: 0.0506.
On to TCCCACATAGTTAATGAGA, for which the TetR repression strength was determined as 0.175.
The value for TCCCCATTAGTATATGAGA was 0.301; that for TCCCGCCCAGTATCCGAGA was 0.289.
Next, TCCCAAGGAGTGTCCGAGA: 0.575; TCCCGAGTAGTGAAAGAGA: 0.337; TCCCTCCCAGTACTTGAGA: 0.306.
Next, TCCCACAGAGTGGATGAGA: 0.0957; TCCCTTGAAGTGGCGGAGA: 0.14; TCCCAACAAGTGCCGGAGA: 0.234.
In turn, TCCCGGCGAGTGGTTGAGA had a TetR repression strength of 0.34.
Regarding TCCCTGACAGTACATGAGA, the TetR repression strength worked out at 0.371.
Next, TCCCGCTGAGTGACGGAGA: 0.0764.
TCCCAGATAGTGGCCGAGA returned a TetR repression strength of 0.00691.
With TCCCGGGGAGTAACAGAGA, the TetR repression strength was 0.263.
Next, TCCCGGAAAGTGTGGGAGA: 0.0601; TCCCGTTGAGTTAGGGAGA: 0.218.
Next, TCCCAGGGAGTAAGTGAGA: 0.126; TCCCTAAGAGTCGTTGAGA: 0.393; TCCCTTATAGTACAGGAGA: 0.103.
Regarding TCCCTGGCAGTGTCAGAGA, the TetR repression strength is 0.272.
The value for TCCCCCGAAGTGGCCGAGA was 0.112.
Next, TCCCCTAGAGTGGTGGAGA: 0.247; TCCCTCATAGTATTGGAGA: 0.22.
Next, TCCCCCGTAGTGAACGAGA: 0.242; TCCCTGTTAGTCTGGGAGA: 0.218; TCCCTGTCAGTGAAAGAGA: 0.632.
The sequence TCCCGCTAAGTCGGCGAGA returned a TetR repression strength of 0.245.
Next, TCCCGGGAAGTTTAGGAGA: 0.0456; TCCCGCGCAGTTTGGGAGA: 0.251; TCCCCATGAGTGGGGGAGA: 0.098.
Next, TCCCGTTAAGTGATAGAGA: 0.406; TCCCCCCGAGTGGTGGAGA: 0.203; TCCCTCGGAGTCACCGAGA: 0.331.
The value for TCCCTTGAAGTCGGAGAGA was 0.0724; that for TCCCGTGAAGTGAAAGAGA was 0.104; that for TCCCAGGAAGTGGGAGAGA was 0.109.
TCCCATGGAGTTGGGGAGA: the TetR repression strength worked out at 0.16.
Sequence TCCCTTCTAGTAGGTGAGA had a TetR repression strength of 0.299.
In the case of TCCCGTGTAGTGTTTGAGA, the TetR repression strength is 0.18.
The value for TCCCTCGGAGTGCGAGAGA was 0.315.
In turn, TCCCTGCCAGTGTTAGAGA displayed a TetR repression strength of 0.429.
The value for TCCCTTAAAGTTGGTGAGA was 0.429; that for TCCCGCGCAGTGCGGGAGA was 0.578.
The value for TCCCAGAAAGTACATGAGA was 0.351.
TCCCGGTTAGTGCCAGAGA: the TetR repression strength is 0.061.
For TCCCGTCAAGTAGGGGAGA, the TetR repression strength turned out to be 0.0741.
The value for TCCCGCCAAGTACGCGAGA was 0.275.
Next, TCCCGAATAGTTTTCGAGA: 0.415; TCCCAGTGAGTGTCTGAGA: 0.231.
Next, TCCCTGTTAGTCTTGGAGA: 0.481; TCCCGCCTAGTGCAAGAGA: 0.393; TCCCTAATAGTGCCCGAGA: 0.138.
In turn, TCCCATGGAGTTTGGGAGA showed a TetR repression strength of 0.201.
Next, TCCCTGTCAGTAGCGGAGA: 0.0338; TCCCATGCAGTCCTAGAGA: 0.417.
As for TCCCTCAAAGTAGCCGAGA, the TetR repression strength was found to be 0.231.
The value for TCCCTGGCAGTGAATGAGA was 0.184; that for TCCCGGAGAGTGCGTGAGA was 0.177; that for TCCCTTTCAGTTTCTGAGA was 0.1.
The value for TCCCTTTTAGTTTGGGAGA was 0.451.
Next, TCCCTAGTAGTTCTCGAGA: 0.282; TCCCATGTAGTTTGAGAGA: 0.222; TCCCGTCCAGTTGACGAGA: 0.00351.
In turn, TCCCTACAAGTTTAGGAGA showed a TetR repression strength of 0.0691.
Next, TCCCGGAAAGTCTGGGAGA: 0.153.
The value for TCCCTGAGAGTGAGAGAGA was 0.123; that for TCCCGGGAAGTCAGGGAGA was 0.367; that for TCCCAATGAGTCTTAGAGA was 0.211.
For TCCCCGCCAGTGCGAGAGA, the TetR repression strength was found to be 0.0262.
Take TCCCGCTAAGTTGACGAGA: the TetR repression strength came to 0.425.
The value for TCCCGCTAAGTGGACGAGA was 0.209; that for TCCCTATTAGTAGATGAGA was 0.247; that for TCCCAGAGAGTTTGCGAGA was 0.2.
Sequence TCCCAGGGAGTCCGTGAGA showed a TetR repression strength of 0.15.
TCCCTCGTAGTTTTGGAGA had a TetR repression strength of 0.238.
Next, TCCCTGAAAGTGAAGGAGA: 0.331.
